One may read the inhibition as the relative decrease from the control value, in per cent.

The structures appear in SMILES notation. In all, about 340,000 compounds went through this assay and about 6,900 (2%) were called active. Cut-off read from the data, not from the text of the source: active = inhibition above about 30%; inactive = below that, where a call was filed. This is a selection; strong and weak results do not stand in their true shares. Entries without a call were filed so in the source. The source holds several records for some structures; these can differ, active in one and inactive in another.

UniProt P14416, sequence (P14416 whole entry, looked up): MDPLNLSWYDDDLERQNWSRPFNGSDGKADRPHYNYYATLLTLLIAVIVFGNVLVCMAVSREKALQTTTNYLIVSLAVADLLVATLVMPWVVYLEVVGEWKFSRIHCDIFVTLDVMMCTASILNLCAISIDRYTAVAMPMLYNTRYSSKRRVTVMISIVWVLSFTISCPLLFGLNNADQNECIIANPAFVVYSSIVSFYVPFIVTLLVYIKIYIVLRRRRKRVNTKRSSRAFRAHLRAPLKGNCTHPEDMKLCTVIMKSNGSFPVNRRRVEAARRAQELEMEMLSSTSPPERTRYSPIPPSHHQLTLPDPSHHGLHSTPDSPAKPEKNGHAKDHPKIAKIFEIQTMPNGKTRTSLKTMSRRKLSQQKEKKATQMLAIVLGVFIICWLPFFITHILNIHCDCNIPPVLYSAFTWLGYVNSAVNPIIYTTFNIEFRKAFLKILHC

For the experiment, the target named is D(2) dopamine receptor (Homo sapiens) (UniProt P14416). Kind of experiment: HTS Assay for Allosteric Antagonists of the Human D2 Dopamine Receptor: Primary Screen for Antagonists. Note: 0% is about no effect. As to conditions: HEK293 TREx D2 cells, calcium flux, dopamine EC80; at 10 µM; stronger effect = higher value. The method in brief:
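Cells plated overnight at 30 C with tetracycline; no-wash calcium dye, 30–90 min RT; 10 s baseline; compound pinned; 180 s read; EC80 dopamine added; another 180 s read.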
(In general: Calcium assays in cells follow changes in intracellular calcium, usually with a dye or a luminescent sensor.)
As for `Cc1cc(C)cc(OCC(=O)Nc2nc3c(s2)CC(C(C)(C)C)CC3)c1` (stereo unspecified), the inhibition came to 0.0533%.

Consider `COc1ccc(OC)c2sc(NC(=O)c3ccc(S(=O)(=O)N4CCCC4)cc3)nc12`, for which the inhibition was determined as 2.07%.

As to `Cc1cccc(-n2ncc(C(=O)N3CCN(C4CCCCC4)CC3)c2C2CCN(C(=O)OC(C)(C)C)CC2)c1`, the inhibition came to 3.68%.

As for `CCc1ccc(C(=O)N/N=C/c2ccc(Cl)cc2Cl)nc1`, the inhibition was active: 72.8%.

As for `C=CC[N+](C)(C)CCCNC(=O)/C=N/O`, the inhibition is active: 61.8%.

As for `CCc1nnc(NC(=O)c2nc(S(=O)(=O)Cc3ccc(C)cc3)ncc2Cl)s1`, the inhibition amounted to 2.36%.

In the case of `CCC(=O)N1CCc2cc(S(=O)(=O)NC(C(=O)NCCc3ccccc3)C(C)C)ccc21` (stereo unspecified), the inhibition is 1.23%.

Turning to `Cc1cc(C)c(NC(=O)C(C)n2c(=O)c(C(F)(F)F)nc3ccccc32)c(C)c1` (stereo unspecified), the inhibition turned out to be 7.46%.

As for `CCn1c2ccccc2c2cc(NC(=O)c3cccc([N+](=O)[O-])c3)ccc21`, the inhibition was active: 42%.

In the case of `COc1ccc(CNc2nc(SCc3ccc(Cl)cc3)nc3ccccc23)cc1`, the inhibition came to 2.83%.

As to `CCN(c1cccc(C)c1)S(=O)(=O)c1ccc(N2CCCCS2(=O)=O)cc1`, the inhibition was -8%.

Regarding `COc1ccccc1C(=O)Oc1c(Sc2ccccc2)c(C)nn1C(C)(C)C`, the inhibition came to 10.5%.

Regarding `Cc1ccc(NC(=O)c2cc(S(=O)(=O)N(C)C3CCCCC3)ccc2F)cc1C`, the inhibition is 15.1%.

On to `COc1ccc(-c2c3c(=O)n(C)c(=O)n(C)c3c3n2-c2ccccc2NC3c2ccc(OC)cc2)cc1` (stereo unspecified), for which the inhibition is 12.2%.

As to `CC(C)NC(=O)CN(Cc1ccc2c(c1)OCO2)C(=O)CCC(=O)Nc1ccccn1`, the inhibition is active: 43.2%.

Regarding `CCCCCN1C(C(=O)c2ccccc2)=C(NC(=O)c2ccc(OC)cc2)c2ccccc2S1(=O)=O`, the inhibition amounted to 6.51%.

Turning to `O=C(Nc1ccc(C(=O)N2CCN(c3cccc(Cl)c3)CC2)cc1)c1nsc2ccccc12`, the inhibition worked out at 11.7%.

Regarding `COc1cccc(CNC(=O)Cn2c(=O)ccc3cc(S(=O)(=O)N4CCC(C)CC4)ccc32)c1`, the inhibition is -11.6%.

For `COc1cccc(C(=O)NCc2ccc3c(c2)CCN3C(=O)c2ccncc2)c1`, the inhibition amounted to 16.5%.

`COc1ccc(-n2c3c(c(=O)[nH]c2=O)C(NC(=O)c2ccccc2Cl)(C(F)(F)F)C(=O)N3)cc1` (stereo unspecified): the inhibition was determined as 7.64%.

In the case of `COc1ccccc1-c1nc(SCC(=O)c2ccccc2)n[nH]1`, the inhibition came out at 6.79%.

For the molecule `COc1ccc(-c2[nH]c(-c3cccc(OC)c3)nc2SCC(=O)Nc2ccc3c(c2)OCO3)cc1`, the inhibition stood at 24.1%.

Take `COc1cccc(-c2cc(C(=O)Nc3c(C)nn(Cc4ccccc4Cl)c3C)no2)c1`: the inhibition stood at 12.6%.

As to `CC(C)CCn1c(=O)c2cccnc2n(CC(=O)Nc2ccc(F)cc2)c1=O`, the inhibition is -18.5%.

As to `Cc1cc2nnc(SCc3ccc(F)cc3)n2c2ccccc12`, the inhibition was -0.232%.

With `CC1CN(c2ccc(Cl)cc2)c2nc3c(c(=O)n(CC(=O)O)c(=O)n3C)n2C1` (stereo unspecified), the inhibition was -4.14%.

`COc1ccc2occ(CC(=O)Nc3ccc(S(=O)(=O)Nc4nccc(C)n4)cc3)c2c1`: the inhibition is -9.85%.

On to `CN1CCN(C2(CNC(=O)c3ccc(C(C)(C)C)cc3)CCCCC2)CC1`, for which the inhibition is 4.09%.

As to `CCC1(C)CC(=O)c2c(ccc3oc(C(=O)NCc4ccccc4)c(C)c23)O1` (stereo unspecified), the inhibition is -12.9%.

Turning to `CCOc1ccc(C(=O)c2cn(CC(=O)Nc3ccc(OC)cc3)c3cc4c(cc3c2=O)OCCO4)cc1`, the inhibition stood at 3.13%.

With `Cc1ccc2oc3c(c(=O)c2c1)C(c1ccc(O)cc1)N(Cc1ccc2c(c1)OCO2)C3=O` (stereo unspecified), the inhibition came to 5.48%.

On to `COc1ccc2[nH]c(=O)c(CN(C(=O)c3cccc(Cl)c3)c3ccccc3C)cc2c1`, for which the inhibition is -14.4%.

For the molecule `CCOc1ccc(C(=O)/C=C/c2cn(CC(O)CN3CCCCCC3)c3ccccc23)cc1` (stereo unspecified), the inhibition was -2.05%.

On to `CCCCN(CC)CCNC(=O)c1c(C)oc2ncnc(N3CCOCC3)c12`, for which the inhibition was 11.3%.

`Cc1ccccc1C(=O)Nc1cc2c(cc1N1CCOCC1)n(C)c(=O)n2C`: the inhibition was determined as 16.9%.

For the molecule `CCOC(=O)CN(C(=O)CSc1nnc2c(n1)[nH]c1c(C)cc(C)cc12)c1ccccc1`, the inhibition is active: 60.8%.

Turning to `COc1ccc(OCC(=O)Nc2nnc(S(=O)(=O)N3CCc4ccccc43)s2)cc1`, the inhibition is -5.61%.

For the molecule `Cc1cccc(C)c1Nc1c(-c2ccccc2F)nc2cccc(C)n12`, the inhibition was 22.7%.

With `COc1ccc(OC)c(NC(=O)c2cc3c(n(-c4ccc(Cl)cc4)c2=O)CC(C)(C)CC3=O)c1`, the inhibition was -3.74%.

On to `CN1CCN(C2=Cc3ccccc3Sc3cc(F)ccc32)CC1`, for which the inhibition is active: 80%.

As for `O=C(CN1CCN(Cc2ccc(F)cc2)C1=O)NCc1ccccc1Cl`, the inhibition was -6.73%.

Turning to `COc1cccc(-c2nn(C)c3sc(C(=O)NCc4cc(OC)ccc4OC)cc23)c1`, the inhibition worked out at 1.92%.

Turning to `Cc1cc(C)cc(NC(=O)CN(c2cc(C(F)(F)F)ccc2Cl)S(=O)(=O)c2ccccc2)c1`, the inhibition stood at 8.61%.

With `O=C(CCS(=O)(=O)c1nc(-c2cccs2)cc(C(F)(F)F)n1)Nc1ccc(OC(F)(F)F)cc1`, the inhibition is -15.4%.

As for `COC(=O)c1ccccc1NC(=O)C1=CC(c2ccc(C)cc2)=NS(=O)(=O)N1C`, the inhibition is 13.8%.

In the case of `COc1ccc(C2c3c(oc4ccccc4c3=O)C(=O)N2Cc2ccc3c(c2)OCO3)cc1` (stereo unspecified), the inhibition is 3.69%.

Regarding `CC(C)(C)c1ccc(Cn2c(Cc3ccccc3)nc3ccccc32)cc1`, the inhibition amounted to 0.0043%.

As for `CCOc1ccc(-c2nonc2NC(=O)c2oc3ccc(F)cc3c2C)cc1`, the inhibition came to 5.06%.

For `CCOC(=O)c1ccccc1NC(=O)CSc1ncc(CO)n1Cc1ccc(C)cc1`, the inhibition is -24%.

For `Cc1nn2c(=O)cc(CN(C)c3ccccc3)nc2s1`, the inhibition was -0.415%.

With `c1ccc(-c2noc(CN3CCc4sccc4C3)n2)cc1`, the inhibition was active: 35.3%.

Turning to `O=C(COc1ccccc1Cl)Nc1cc(-c2ccccc2F)nn1-c1ccccc1`, the inhibition is -13.7%.

On to `COc1ccccc1NC(c1ccc(Cl)cc1)c1nnc(-c2cccc(F)c2)o1` (stereo unspecified), for which the inhibition was 7.19%.

Consider `CC(=O)c1ccc(NC(=O)CCc2c(C)nc3c(c(C)nn3-c3ccc(C)cc3)c2C)cc1`, for which the inhibition is 4.43%.

Take `O=C(Cn1c(SCc2cccc(F)c2)nc2cccnc21)Nc1ccc(F)c(Cl)c1`: the inhibition is -6.74%.

In the case of `COc1ccc(NC(=O)C(c2ccc(C)cc2)N(C)C(=O)/C=C\c2ccc3c(c2)OCO3)cc1` (stereo unspecified), the inhibition is -6.01%.

On to `O=S(=O)(NCc1csc(-c2ccccc2)n1)c1cccc(F)c1`, for which the inhibition is 2.37%.

Turning to `Cc1ccc(CN(Cc2ccco2)C(=O)COc2ccccc2C)cc1`, the inhibition was -21.7%.

For the molecule `COC(=O)Nc1nc2c(C)cccc2s1`, the inhibition is active: 37.9%.

Take `CCOC(=O)c1ccc(NC(=O)CCc2c(C)nc3c(c(C)nn3-c3ccccc3)c2C)cc1`: the inhibition is -12.9%.

As for `COc1cccc(C2=C(C(C)=O)Sc3nncn3N2C(C)=O)c1`, the inhibition was -1.16%.

`COc1ccc(S(=O)(=O)N(C)C)cc1NC(=O)CSC(C)C(=O)Nc1cc(C)on1` (stereo unspecified): the inhibition is active: 72.4%.

Take `Cc1cc(Cl)ccc1OCCCC(=O)NCCCn1ccnc1`: the inhibition was active: 35.7%.

As to `CNS(=O)(=O)c1cn(CC(=O)N2CCN(c3ccccc3F)CC2)cc1S(=O)(=O)NC`, the inhibition was -9.39%.

As to `CCc1ccc(OC(C)c2nc(-c3ccc(-n4cccc4)cc3)no2)cc1` (stereo unspecified), the inhibition was -4.03%.

Turning to `COCc1nc2cccnc2n1C1CCN(S(=O)(=O)N(C)C)CC1`, the inhibition is 5.08%.

In the case of `CCOc1ccc(CCNc2ncnc3onc(-c4ccc(Cl)cc4)c23)cc1OCC`, the inhibition is -13.7%.

Consider `Cn1cnc(S(=O)(=O)N2CCC(C(=O)NCc3ccccc3Cl)CC2)c1`, for which the inhibition worked out at 13.2%.

Consider `Cc1ncc([N+](=O)[O-])n1CCO`, for which the inhibition was active: 38.2%.

On to `COc1cccc(NC(=O)CSc2nc3ccc(NC(=O)c4cccs4)cc3s2)c1`, for which the inhibition is -7.29%.

Turning to `CCOC(=O)C1(CCOC)CCN(Cc2nc(C(C)C)cs2)CC1`, the inhibition was active: 32.8%.

Regarding `COc1cccc(-c2nnc(SCC(=O)NC3CCS(=O)(=O)C3)n2C)c1` (stereo unspecified), the inhibition is active: 39%.

On to `CCOC(=O)c1c(NC(=O)/C=C/c2ccc(C(C)C)cc2)sc2c1CCC2`, for which the inhibition was -11.6%.

On to `Cc1ccc(NC(=O)Nc2nnc(N3CCCC3)s2)cc1`, for which the inhibition is -3.75%.

`Cc1cccc(C(=O)Nc2sc3c(c2C(=O)N2CCCCC2)CCC(C)C3)c1` (stereo unspecified): the inhibition is -2.29%.

Turning to `CC1CCCC(NC(=O)c2cn(C)c3ccc(S(=O)(=O)N4CCCC4)cc3c2=O)C1C` (stereo unspecified), the inhibition is active: 30.8%.

As to `CCN(CC)CCNC(=O)c1c(C)oc2ncn(C)c(=O)c12`, the inhibition is -8.72%.

In the case of `O=C(CCc1cn(Cc2ccc(F)cc2)c2ccccc12)NCCc1ccc(Cl)cc1`, the inhibition is 16.8%.

Consider `Cc1cccc(CN2CCC(CNC(=O)c3c(C)oc4ncnc(N5CCCCC5)c34)CC2)c1`, for which the inhibition was 5.91%.

Regarding `CC(Sc1nc(=O)cc(N)n1CCc1ccccc1)C(=O)Nc1ccc(Cl)cc1` (stereo unspecified), the inhibition is -0.172%.

Turning to `CSc1nsc(SCC(=O)Nc2ccc(C(N)=O)cc2)n1`, the inhibition was active: 37.4%.

With `CCN(C(=O)C1CCC(CNS(=O)(=O)c2cccc3nsnc23)CC1)c1ccc(C)c(C)c1` (stereo unspecified), the inhibition is 18.1%.

With `O=C(NCCc1ccccc1)c1nc2nc(-c3cccs3)cc(C(F)(F)F)n2n1`, the inhibition was active: 40.4%.

Turning to `CCOC(=O)C1CCN(c2nc3c(S(=O)(=O)c4ccccc4)nnn3c3ccsc23)CC1`, the inhibition was -2.81%.

Regarding `Cc1ccccc1C(=O)Nc1ccc(OCc2cc(=O)n3cccc(C)c3n2)cc1`, the inhibition was 7.02%.

As for `COc1ccc(NC(=O)Nc2nnc(C)s2)cc1`, the inhibition was -6.46%.

On to `CC1=C(c2ccc(C)c(C)c2)S(=O)(=O)N=C1N1CCC(C(=O)N2CCC(C(N)=O)CC2)CC1`, for which the inhibition is -4.88%.

Turning to `O=C1COc2cc(S(=O)(=O)NCc3ccco3)c(Cl)cc2N1`, the inhibition was -6.47%.

For `O=C(CCC(=O)N1CCOc2ccc(Cl)cc21)NCCCN1CCN(c2ccccc2F)CC1`, the inhibition is active: 85.8%.

Regarding `COc1ccc(C2c3c(n(C)c4ccccc34)C(=O)N2CC(=O)Nc2ccc(C)c(Cl)c2)cc1` (stereo unspecified), the inhibition is 11.3%.

For the molecule `CC(CCc1ccccc1)NCc1cccc2ccccc12` (stereo unspecified), the inhibition was active: 32.4%.

For `CCc1ccccc1N(C(=O)c1snc(C(N)=O)c1N)C(C(=O)NCC1CCCO1)c1ccc(C)o1` (stereo unspecified), the inhibition was active: 32.6%.

With `Cc1ccc(-c2nc(SCCOc3ccccc3C)n3[nH]c(=O)cc3n2)cc1`, the inhibition was -17.9%.

On to `Cc1ccc(NC(=O)Cn2cc(S(=O)(=O)c3ccc(C)cc3)c(=O)c3cc4c(cc32)OCO4)cc1`, for which the inhibition came to 16.1%.

As to `CC(C)OCCCNC(=O)c1ccc2c(c1)NC(=O)c1ccccc1S2`, the inhibition was -8.56%.

On to `COC(=O)c1ccccc1NC(=O)CSc1nc2ccccc2nc1Cc1ccccc1OC`, for which the inhibition is -27.6%.

The values above are taken from PubChem BioAssay AID485344 (National Center for Advancing Translational Sciences (NCATS), 2010).
